Screen size: about 390,000 compounds; about 17,000 (4.4%) were called active. Inconclusive means that the source gave no clear call. Such entries were picked first, then a sample of the others. Calls follow the shape of the dose curve; as a rule, active = well fitted inhibition curve with a large enough effect; inconclusive = small, poorly fitted or top-dose-only effect; inactive = no such curve, though single readings can be large or run the other way. Potencies of inconclusive entries are doubtful fits and often do not repeat.
The compounds below were run against Lysine-specific demethylase 4A (Homo sapiens) (UniProt O75164) (assay: qHTS Assay for Inhibitors of JMJD2A-Tudor Domain). Conditions: AlphaScreen JMJD2A-Tudor / H3K4me3 peptide binding; activity change, negative = inhibition: at 114 µM (top of the series).
% is scaled to controls: 0 for no effect and ±100 for the full control effect; potency is read from the fitted curve at half-maximal effect; tags tell the direction and shape of the fitted curve.
Also: nearly all actives have a fitted effect of over 50% in size.

UniProt O75164, sequence (O75164 whole entry, looked up, the tested form may be a part): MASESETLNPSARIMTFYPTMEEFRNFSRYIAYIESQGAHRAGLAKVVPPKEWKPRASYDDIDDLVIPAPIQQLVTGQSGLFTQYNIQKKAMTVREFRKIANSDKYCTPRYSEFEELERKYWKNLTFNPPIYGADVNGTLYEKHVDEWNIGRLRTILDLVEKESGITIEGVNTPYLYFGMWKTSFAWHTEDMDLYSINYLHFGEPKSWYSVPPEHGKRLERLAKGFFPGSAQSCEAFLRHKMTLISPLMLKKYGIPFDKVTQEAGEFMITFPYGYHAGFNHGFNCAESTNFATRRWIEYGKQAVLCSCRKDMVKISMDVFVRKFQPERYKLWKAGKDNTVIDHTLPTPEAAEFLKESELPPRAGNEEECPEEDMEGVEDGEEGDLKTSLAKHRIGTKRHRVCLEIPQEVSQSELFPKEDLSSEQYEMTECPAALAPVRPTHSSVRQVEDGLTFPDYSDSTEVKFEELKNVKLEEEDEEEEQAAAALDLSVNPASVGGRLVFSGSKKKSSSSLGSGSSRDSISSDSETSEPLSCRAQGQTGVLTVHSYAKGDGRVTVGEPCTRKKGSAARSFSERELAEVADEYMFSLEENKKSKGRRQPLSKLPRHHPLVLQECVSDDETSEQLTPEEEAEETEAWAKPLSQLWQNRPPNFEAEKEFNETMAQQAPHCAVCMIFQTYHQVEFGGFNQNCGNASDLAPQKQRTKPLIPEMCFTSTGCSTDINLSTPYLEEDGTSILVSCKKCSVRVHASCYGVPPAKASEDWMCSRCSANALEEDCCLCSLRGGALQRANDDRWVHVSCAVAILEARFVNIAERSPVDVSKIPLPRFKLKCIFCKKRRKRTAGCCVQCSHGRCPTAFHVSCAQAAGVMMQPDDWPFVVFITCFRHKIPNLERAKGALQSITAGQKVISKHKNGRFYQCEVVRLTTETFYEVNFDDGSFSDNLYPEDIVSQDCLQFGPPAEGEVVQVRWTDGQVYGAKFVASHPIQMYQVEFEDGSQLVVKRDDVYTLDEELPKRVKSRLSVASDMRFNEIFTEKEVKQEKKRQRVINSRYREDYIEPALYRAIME

Potency, active:
CN(C)c1ccc(O)c2c1CC1CC3C(N(C)C)C(=O)C(C(N)=O)=C(O)[C@@]3(O)C(=O)C1=C2O (some centres not stated) 8.91 µM
Cn1cc(Cl)c(-c2n[nH]c(=S)n2C2CCCCC2)n1 4.47 µM
O=C(CSc1nc2ccccc2c(=O)[nH]1)c1ccc(O)c(O)c1 56.2 µM

Potency, inconclusive:
O=C(CSc1nccc2ccccc12)N1CCN(Cc2ccc3c(c2)OCO3)CC1 44.7 µM [inhibitor, full curve]
COc1cc(NC(=O)CCn2c(-c3ccccc3)cc(C(C)=O)c2C)cc(OC)c1 50.1 µM [inhibitor, partial curve]
COc1ccc(C(=O)Nc2ccnn2C2CCN(C(=O)c3cccnc3)CC2)cc1 89.1 µM [inhibitor, single point]
Cc1ccc(NCc2nnc(SCC(=O)OC3CCCCC3)o2)c(C)c1 44.7 µM [inhibitor, full curve, poor fit]
Cc1ccc(-n2nc(C(=O)N3CCN(c4cc(Cl)ccc4C)CC3)c(=O)n(C)c2=O)cc1 17.8 µM [inhibitor, full curve, poor fit]
CC(NC(=O)c1ccc(S(=O)(=O)C(F)F)cc1)c1ccccc1 (configuration not stated) 25.1 µM [inhibitor, single point]
O=C(c1ccccc1O)N(Cc1ccco1)Cc1ccco1 56.2 µM [inhibitor, partial curve]
O=C(c1ccccc1F)N1CCN(c2ccc([N+](=O)[O-])c(NCc3cccnc3)c2)CC1 56.2 µM [inhibitor, partial curve]
CCc1cc2c(SCC#N)ncnc2s1 50.1 µM [inhibitor, partial curve, poor fit]
CC1=NN(C(=O)c2ccc(Cl)cc2)C(O)(c2ccccc2)C1 (configuration not stated) 79.4 µM [inhibitor, partial curve]
Cc1nn(-c2ccccc2)c2sc(-c3nnc(SCC(=O)O)o3)cc12 56.2 µM [inhibitor, partial curve]
Cc1ncoc1C(=O)N1CCc2c([nH]c3ccccc23)C1C1CCCCC1 (configuration not stated) 50.1 µM [inhibitor, partial curve]
CCOc1ccc(/C=c2\sc3nc(-c4ccco4)nn3c2=O)cc1OCC 79.4 µM [inhibitor, single point]
O=C(COC(=O)CN1C(=O)c2ccccc2C1=O)Nc1ncc(Cl)cc1Cl 50.1 µM [inhibitor, partial curve]
O=C(CC1N=C2c3ccccc3N=C(SCc3ccc(Cl)cc3)N2C1=O)NCc1ccco1 (configuration not stated) 50.1 µM [inhibitor, partial curve]
Cc1cc(C)c(NC(=S)NC(=O)c2c(Cl)c(C)nn2C)c([N+](=O)[O-])c1 15.8 µM [inhibitor, partial curve]
Cc1cccc(N2CCN(C(=O)CCN3C(=S)NC(C)(C)CC3C)CC2)c1C (configuration not stated) 63.1 µM [inhibitor, partial curve]
CCOc1ccc(C2C(C(=O)c3cccs3)=C(O)C(=O)N2CCCn2ccnc2)cc1 (configuration not stated) 89.1 µM [inhibitor, single point]
Cc1nn(-c2ccccc2)c2c1C(c1c(C)[nH]c(C#N)c1C)C(C#N)=C(N)O2 (configuration not stated) 56.2 µM [inhibitor, partial curve]
COc1ccc(/C=C2\CCc3ccccc3C2=O)cc1O 56.2 µM [inhibitor, partial curve, poor fit]
COc1cc2cc(CN(Cc3nnnn3Cc3ccco3)C3CCCCC3)c(=O)[nH]c2cc1OC 79.4 µM [inhibitor, single point]
Cc1ccc(S(=O)(=O)Nc2cccc(Oc3cnccn3)c2)cc1 25.1 µM [inhibitor, single point]
CCCCOC(=O)c1ccc(NC(=O)c2cc(Cl)c(Cl)cc2C(=O)O)cc1 79.4 µM [inhibitor, single point]
CC(=O)c1c(C(C)=O)c(C)n(-c2nc(-c3ccc(C)c(C)c3)c(C)s2)c1C 22.4 µM [inhibitor, full curve]
CCCCC(=O)Nc1ccc(NCc2ccc(C)s2)cc1 63.1 µM [inhibitor, partial curve]
Cc1cc(N/N=C/c2ccc(N(C)C)cc2)nc(NCc2ccccc2)n1 12.6 µM [inhibitor, full curve]
Cn1cccc1-c1nc2ccc(NC(=O)c3ccccc3)cc2[nH]1 44.7 µM [inhibitor, partial curve]
Cc1c(N=N/C(C(=O)Nc2ccccc2)=C(/O)c2ccccc2)c(=O)n(-c2ccccc2)n1C 8.91 µM [inhibitor, partial curve]
O=S(=O)(c1ccc2ccccc2c1)N(CC(O)COCc1ccco1)c1ccccc1 (configuration not stated) 44.7 µM [inhibitor, partial curve, poor fit]
COc1cc(C(=O)O)cc(OC)c1OCc1cc(C(=O)O)oc1C 79.4 µM [inhibitor, single point]

Activity change, negative = inhibition, inactive:
CC(C)CCNC(=O)c1cccc(Nc2nc3ccccc3n3nnnc23)c1 2.4%
Cc1cc(NS(=O)(=O)c2ccc(NC(=O)c3cc(-c4ccccc4Cl)nc4ccccc34)cc2)no1 -30.7%
Cc1cc(F)ccc1NC(=O)CCS(=O)(=O)c1ccc2c(c1)NC(=O)CO2 4.93%
Cc1ccc(S(=O)(=O)NC(C)C(=O)NC2CC2)cc1 (configuration not stated) -1.06%
CCOC(=O)C12CNC(=O)C(C(=O)OCC)(CNC1=O)C2 5.2%
O=C(NNc1c(Cl)cccc1Cl)c1ccno1 -12.8%
Cc1cnc(CNC(=O)C2CCC(=O)N(CCc3cccc(F)c3)C2)[nH]1 (configuration not stated) -18.6%
Cc1cc(C(=O)CN2C(=O)NC(C)(c3cccc(Br)c3)C2=O)c(C)n1Cc1ccco1 (configuration not stated) -30.9%
CCc1ccccc1NC(=O)NCc1ccc2c(c1)OCO2 -21.8%
